The source holds more than one record for some entries. The list is limited to them. An entry can have further records. The records of an entry repeat one measurement in other runs, samples, wells, individuals or studies.
Test system: 616215-338-R-J1-PDC spheroids with HUVEC/MSC, viability
Test: Anticancer human tumor 616215-338-R-J1-PDC patient-derived colon adenocarcinoma cell line growth inhibition [PI3K]
Details: for viability, T/C: stronger effect = lower value; for IC50: compound alone
Source text: Combinatorial screen of targeted agents with the PI3K inhibitors inavolisib, alpelisib, duvelisib, and copanlisib in multi-cell type tumor spheroids
A high-throughput screen of multi-cell type tumor spheroids was designed to identify active combinations of targeted small molecules and PI3K pathway inhibitors. Complex spheroids include a stromal component modeled by human endothelial cells (HUVEC) and fibroblasts modeled by human mesenchymal stem cells (MSCs). The concentration ranges selected for each drug and investigational agent were based upon clinically achievable concentrations if the clinical Cmax of the agent was known.
Compounds. The drugs and investigational agents: inavolisib (NSC800729), alpelisib (NSC765974), duvelisib (NSC772469), copanlisib (NSC816437), ipatasertib (NSC767898), afuresertib (NSC778305), talazoparib (NSC767125), sapanisertib (NSC764658), selumetinib (NSC741078), tovorafenib (DAY101, NSC766906), vemurafenib (NSC761431), ravoxertinib (NSC781343), sotorasib (NSC818433), MRTX1133 (NSC 836407), abemaciclib (NSC 768073), palbociclib (NSC758247), venetoclax (NSC 766270), SY5609 (NSC837396), enzalutamide (NSC755605), and darolutamide (NSC825331), were obtained from the National Cancer Institute (NCI) Developmental Therapeutics Program Chemical Repository. The FDA-approved anticancer drug set is available from the NCI Developmental Therapeutics Program. […] The stock solutions were prepared in dimethyl sulfoxide (DMSO, Sigma-Aldrich, St. Louis, MO, cat. D2650) at 800-fold the tested concentration and stored at -70 degrees C prior to their use. All drugs and investigational agents were tested over a range starting from a high concentration at or near the clinical Cmax and decreasing in half-log increments. If the clinical Cmax for an agent had not been determined, the highest concentration tested was 10 microM.
Cell Culture. All cells were maintained in an incubator at 37 degrees C and 5% CO2 with 95% humidity. The PDC lines were cultured according to standard operating procedures established by the NCI PDMR (https://pdmr.cancer.gov/sops/default.htm). All PDCs were thawed and cultured in Matrigel-coated flasks prepared with a working solution of 1X Ham's F-12 nutrient mix, without supplementation (Invitrogen, Waltham, MA, cat. 11765054), 100 U/mL penicillin-streptomycin (Invitrogen, cat. 15140122), and 2.5% Matrigel (Corning Inc., Corning, NY, cat. 354248) for the first three passages. The 354836-022-R-J1-PDC, 475296-252-R-J1-PDC, and 997726-040-R-J2-PDC lines were cultured in 6A media, which includes advanced DMEM/F-12 (Thermo Fisher Scientific, cat. 12634028), 10 mM HEPES (Thermo Fisher Scientific, cat. 15630080), 1X GlutaMAX supplement (Thermo Fisher Scientific, cat. 35050061), 0.1 mg/mL primocin (InvivoGen, San Diego, CA, cat. ant-pm-2), 10% defined fetal bovine serum, heat inactivated (HyClone Laboratories Inc., Logan, UT, cat. SH30070.03HI), 50% L-WRN conditioned media (ATCC, cat. CRL-3276), 1.25 mM N-Acetyl-L-cysteine (Sigma-Aldrich, cat. A9165), 10 mM nicotinamide (Sigma-Aldrich, cat. N0636), 1X B-27 supplement (Thermo Fisher Scientific, cat. 17504044), 1X N-2 supplement (Thermo Fisher Scientific, cat. 17502048), and 10 microM Y-27632 dihydrochloride (Tocris Bioscience, Bristol, United Kingdom, cat. 1254). The 624824-186-R-J2-PDC line was cultured in 6C/Colon 1B media, which includes all 6A media components plus 50 ng/mL human EGF recombinant protein (Thermo Fisher Scientific, cat. PHG0311). […]
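Note: spheroids exposed to agents for seven days before the viability read.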

SMILES | viability, T/C (compound alone 10 µM) | viability, T/C (compound alone 3.16 µM) | IC50 | also measured
C=CC(=O)N1CCN(c2nc(=O)n(-c3c(C)ccnc3C(C)C)c3nc(-c4c(O)cccc4F)c(F)cc23)C(C)C1 (stereo not given) | 92.3, 98.4, 85.9, 71.3% |  |  | 
CCCS(=O)(=O)Nc1ccc(F)c(C(=O)c2c[nH]c3ncc(-c4ccc(Cl)cc4)cc23)c1F |  | 59.8, 68.4, 68.9, 85.3% |  | 
Cn1cnc2c(F)c(Nc3ccc(Br)cc3Cl)c(C(=O)NOCCO)cc21 |  |  | > 3 µM, 1.07 µM, 1.56 µM, 1.98 µM | 
CC1(C)CCC(CN2CCN(c3ccc(C(=O)NS(=O)(=O)c4ccc(NCC5CCOCC5)c([N+](=O)[O-])c4)c(Oc4cnc5[nH]ccc5c4)c3)CC2)=C(c2ccc(Cl)cc2)C1 | 2.4, 2.03, 3.47, 107% |  | 4.72 µM, 4.82 µM, 4.69 µM, > 10 µM | viability, T/C (compound alone 0.0316 µM): 93.2, 89, 115, 88.1%
CC(C)NCC(C(=O)N1CCN(c2ncnc3c2C(C)CC3O)CC1)c1ccc(Cl)cc1 (stereo not given) | 48, 34, 25.6, 22.6% |  |  | 
CC1(C)CCC(Nc2ncc(C(F)(F)F)c(-c3c[nH]c4c(P(C)(C)=O)c(C#N)ccc34)n2)CN1 (stereo not given) |  |  | 3.57 µM, 3.52 µM, < 31.6 nM | viability, T/C (compound alone 0.0316 µM): 67.2, 45.5, 36.5, 41.2%; viability, T/C (compound alone 0.316 µM): 65.1, 59.3, 36.2, 50.8%
Cn1ncc(Cl)c1-c1cc(C(=O)NC(CN)Cc2cccc(F)c2)sc1Cl (stereo not given) |  | 83.4, 74.5, 61.6, 57.4% |  | 
CC(Cn1ccc(-c2ccc(C#N)c(Cl)c2)n1)NC(=O)c1cc(C(C)O)[nH]n1 (stereo not given) |  | 95.8, 103, 97.8, 124% |  | viability, T/C (compound alone 0.1 µM): 94.3, 109, 82.5, 91.4%
CCN1CCN(Cc2ccc(Nc3ncc(F)c(-c4cc(F)c5nc(C)n(C(C)C)c5c4)n3)nc2)CC1 |  |  |  | viability, T/C (compound alone 0.316 µM): 114, 105, 146, 113%; viability, T/C (compound alone 1 µM): 115, 105, 108, 85.2%

— PubChem BioAssay AID1963978 (Molecular Pharmacology Branch, DTP, NCI, 2024)
